Test results reported in the supplement of paper PMC8728848.
The other results are listed elsewhere or left out.

Legend:
Assay in all cases: glycan array binding signal (z-score within array); higher = stronger binding
Settings in all cases: glycan notation: IUPAC condensed, linker removed
[1] = biological target: Man(a1-2)Man(a1-3)[Man(a1-2)Man(a1-6)]Man(a1-6)[Man(a1-2)Man(a1-2)Man(a1-3)]Man
Outline: (§1)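 Negative Z-scores can be read as non-binding. The Z-score is calculated within each array and then averaged across arrays of one protein sequence at different concentrations or buffers and across linkers. Arrays, 3228 in all, were curated from the Consortium for Functional Glycomics database and kept only where the protein sequence was available.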

[2] = biological target: Man(a1-2)Man(a1-3)[Man(a1-2)Man(a1-6)]Man(a1-6)[Man(a1-2)Man(a1-2)Man(a1-3)]Man(b1-4)GlcNAc(b1-4)GlcNAc
Outline: as §1

[3] = biological target: Man(a1-2)Man(a1-3)[Man(a1-6)]Man(a1-6)[Man(a1-2)Man(a1-3)]Man(b1-4)GlcNAc(b1-4)GlcNAc
Outline: as §1

[4] = biological target: Man(a1-2)Man(a1-6)[Man(a1-3)]Man(a1-6)[Man(a1-2)Man(a1-2)Man(a1-3)]Man
Outline: as §1

[5] = biological target: Man(a1-2)Man(a1-6)[Man(a1-3)]Man(a1-6)[Man(a1-2)Man(a1-2)Man(a1-3)]Man(b1-4)GlcNAc(b1-4)GlcNAc
Outline: as §1

[6] = biological target: Man(a1-3)[Man(a1-6)]Man
Outline: as §1

[7] = biological target: Man(a1-3)[Man(a1-6)]Man(a1-6)[Man(a1-2)Man(a1-3)]Man(b1-4)GlcNAc(b1-4)GlcNAc
Outline: as §1

[8] = biological target: Man(a1-3)[Man(a1-6)]Man(a1-6)[Man(a1-3)]Man
Outline: as §1

[9] = biological target: Man(a1-3)[Man(a1-6)]Man(a1-6)[Man(a1-3)]Man(b1-4)GlcNAc(b1-4)GlcNAc
Outline: as §1

[10] = biological target: Man(a1-3)[Man(a1-6)]Man(b1-4)GlcNAc(b1-4)GlcNAc
Outline: as §1

[11] = biological target: Man(a1-3)[Man(a1-6)]Man(b1-4)GlcNAc(b1-4)[Fuc(a1-6)]GlcNAc
Outline: as §1

[12] = biological target: Man(a1-6)Man
Outline: as §1

[13] = biological target: Man(b1-4)GlcNAc
Outline: as §1

[14] = biological target: MurNAc(b1-4)GlcNAc
Outline: as §1

[15] = biological target: Neu5Ac(a2-3)Gal
Outline: as §1

[16] = biological target: Neu5Ac(a2-3)Gal(b1-3)GalNAc
Outline: as §1

[17] = biological target: Neu5Ac(a2-3)Gal(b1-3)GalNAc(b1-3)Gal(a1-4)Gal(b1-4)Glc
Outline: as §1

[18] = biological target: Neu5Ac(a2-3)Gal(b1-3)GalNAc(b1-4)[Neu5Ac(a2-3)]Gal(b1-4)Glc
Outline: as §1

[19] = biological target: Neu5Ac(a2-3)Gal(b1-3)GalNAc(b1-4)[Neu5Ac(a2-8)Neu5Ac(a2-3)]Gal(b1-4)Glc
Outline: as §1

[20] = biological target: Neu5Ac(a2-3)Gal(b1-3)GalNAc6S
Outline: as §1

[21] = biological target: Neu5Ac(a2-3)Gal(b1-3)GlcNAc
Outline: as §1

[22] = biological target: Neu5Ac(a2-3)Gal(b1-3)GlcNAc(b1-2)Man
Outline: as §1

[23] = biological target: Neu5Ac(a2-3)Gal(b1-3)GlcNAc(b1-2)Man(a1-3)[GlcNAc(b1-4)][Neu5Ac(a2-3)Gal(b1-3)GlcNAc(b1-2)Man(a1-6)]Man(b1-4)GlcNAc(b1-4)GlcNAc
Outline: as §1

[24] = biological target: Neu5Ac(a2-3)Gal(b1-3)GlcNAc(b1-2)Man(a1-3)[Neu5Ac(a2-3)Gal(b1-3)GlcNAc(b1-2)Man(a1-6)]Man(b1-4)GlcNAc(b1-4)GlcNAc
Outline: as §1

[25] = biological target: Neu5Ac(a2-3)Gal(b1-3)GlcNAc(b1-3)Gal(b1-3)GlcNAc
Outline: as §1

[26] = biological target: Neu5Ac(a2-3)Gal(b1-3)GlcNAc(b1-3)Gal(b1-4)GlcNAc
Outline: as §1

[27] = biological target: Neu5Ac(a2-3)Gal(b1-3)GlcNAc(b1-3)GalNAc
Outline: as §1

[28] = biological target: Neu5Ac(a2-3)Gal(b1-3)GlcNAc(b1-4)Gal(b1-4)Glc
Outline: as §1

[29] = biological target: Neu5Ac(a2-3)Gal(b1-3)GlcNAc(b1-6)GalNAc
Outline: as §1

[30] = biological target: Neu5Ac(a2-3)Gal(b1-3)GlcNAc6S
Outline: as §1

[31] = biological target: Neu5Ac(a2-3)Gal(b1-3)[Fuc(a1-4)]GlcNAc
Outline: as §1

[32] = biological target: Neu5Ac(a2-3)Gal(b1-3)[Fuc(a1-4)]GlcNAc(b1-3)Gal(b1-3)[Fuc(a1-4)]GlcNAc
Outline: as §1

[33] = biological target: Neu5Ac(a2-3)Gal(b1-3)[Fuc(a1-4)]GlcNAc(b1-3)Gal(b1-4)[Fuc(a1-3)]GlcNAc
Outline: as §1

[34] = biological target: Neu5Ac(a2-3)Gal(b1-3)[GlcNAc(b1-6)]GalNAc
Outline: as §1

[35] = biological target: Neu5Ac(a2-3)Gal(b1-3)[Neu5Ac(a2-6)]GalNAc
Outline: as §1

[36] = biological target: Neu5Ac(a2-3)Gal(b1-3)[Neu5Ac(a2-6)]GlcNAc(b1-3)[Fuc(a1-3)[Gal(b1-4)]GlcNAc(b1-6)]Gal(b1-4)Glc
Outline: as §1

[37] = biological target: Neu5Ac(a2-3)Gal(b1-3)]Neu5Ac(a2-3)Gal(b1-4)]GlcNAc
Outline: as §1

[38] = biological target: Neu5Ac(a2-3)Gal(b1-4)Glc
Outline: as §1

B1: FimA-N3 (Actinomyces oris) (protein)
chain: MHHHHHHSSGVDLGTENLYFQSNAGLQGAQFQLYKAKNAYANTCSNEKEGAPIAINGQTTLTTDAQGAIDIKGLFISDSIDGADRDNQVNAMERCYVLVETKAPAGYVLPAGNGAATPVKVKAGEETTDN
Question: What does the source list for B1?
Answer: glycan array binding signal (z-score) [1]: -0.469; glycan array binding signal (z-score) [2]: 0.019; glycan array binding signal (z-score) [3]: -0.663; glycan array binding signal (z-score) [4]: -0.315; glycan array binding signal (z-score) [5]: 0.133; glycan array binding signal (z-score) [6]: -0.131; glycan array binding signal (z-score) [7]: 0.179; glycan array binding signal (z-score) [8]: -0.288; glycan array binding signal (z-score) [9]: -0.253; glycan array binding signal (z-score) [10]: -0.463; glycan array binding signal (z-score) [11]: -0.616; glycan array binding signal (z-score) [12]: 3.05; glycan array binding signal (z-score) [13]: -0.361; glycan array binding signal (z-score) [14]: 0.17; glycan array binding signal (z-score) [15]: 0.307; glycan array binding signal (z-score) [16]: -0.209; glycan array binding signal (z-score) [17]: -0.314; glycan array binding signal (z-score) [18]: -0.346; glycan array binding signal (z-score) [19]: -0.304; glycan array binding signal (z-score) [20]: -0.036; glycan array binding signal (z-score) [21]: -0.431; glycan array binding signal (z-score) [22]: 0.059; glycan array binding signal (z-score) [23]: -0.419; glycan array binding signal (z-score) [24]: -0.484; glycan array binding signal (z-score) [25]: -0.131; glycan array binding signal (z-score) [26]: 1.01; glycan array binding signal (z-score) [27]: -0.423; glycan array binding signal (z-score) [28]: -0.649; glycan array binding signal (z-score) [29]: 0.038; glycan array binding signal (z-score) [30]: -0.291; glycan array binding signal (z-score) [31]: 15.7; glycan array binding signal (z-score) [32]: 0.573; glycan array binding signal (z-score) [33]: 0.004; glycan array binding signal (z-score) [34]: 0.093; glycan array binding signal (z-score) [35]: -0.145; glycan array binding signal (z-score) [36]: 0.006; glycan array binding signal (z-score) [37]: -0.167; glycan array binding signal (z-score) [38]: 0.051
